The campaign covered roughly 52,000 compounds. About 1,700 (3.3%) were called active. No stated cut-off is given here; in the data, active means survival mostly below about 52% (no sharp cut-off); inactive means mostly above about 56%. The list shows a part of the results.

The assay relates to Wild type. Briefly: S. aureus survival, RN4220 and DeltatarO strains – OD600, teichoic acid synthesis inhibitors, primary screen (AID 463173). The settings on record: S. aureus RN4220 wild type/DeltatarO growth, OD600, 18 h, stronger effect = lower value, screened at 18.75 µg/mL (by protocol).
Regarding `O=C(O)CCn1nnc(-c2cccs2)n1`, the survival was inactive: 101%.
Under `O=C(NCc1ccc(Cl)cc1)c1cc(S(=O)(=O)N2CCCCC2)c[nH]1` stands inactive: 102%; under `CCOc1ccc2nc(NC(=O)c3cc(=O)c4ccc(C)cc4o3)sc2c1`, inactive: 52%; under `CCN1CCSc2ccc(C(=O)NC(C)c3ccccc3)cc21` (stereo not given), inactive: 89%.
On to `Cc1cc(C)cc(C(=O)Nc2ccc(-c3nc4ncccc4o3)cc2)c1`, for which the survival is inactive: 80%.
For the compound `Cc1c2cnn(CC(=O)N3CCN(c4ccc(F)cc4)CC3)c(=O)c2c(C)n1Cc1ccc(F)cc1`, the survival was inactive: 92%.
Consider `Cc1nn(CCCC(=O)NCc2ccc(F)cc2)c(=O)c2c1sc1ccccc12`, for which the survival is inactive: 87%.
On to `CCOc1ccc(N2CC(c3nc4ccccc4n3Cc3cccc(Cl)c3)CC2=O)cc1` (stereo not given), for which the survival is inactive: 51%.
As to `COc1c(C)cc(S(=O)(=O)NCCc2c(C)[nH]c3ccccc23)c(C)c1C`, the survival is inactive: 105%.
The result for `CCOC(=O)c1cc(-c2ccccc2)n(-c2cccc(C(=O)Nc3ccc(F)c(F)c3)c2)c1C` reads inactive: 68%; that for `COc1ccccc1CNC(=O)CCn1c(=O)c2ccccc2n(CC(=O)Nc2cccc(Cl)c2)c1=O`, inactive: 84%; that for `Cc1c(NC(=O)c2cc(-c3ccc(Cl)c(Cl)c3)on2)c(=O)n(-c2ccccc2)n1C`, inactive: 74%.
Under `CCOC(=O)c1ccc(NC(=O)CCCc2nc(-c3ccccc3Cl)no2)cc1` stands inactive: 75%; under `CCOc1ccc(S(=O)(=O)NCC(c2ccco2)S(=O)(=O)c2cccs2)cc1` (stereo not given), inactive: 74%.
Take `CCOc1ccc(-c2cc(NC(=O)Nc3cccc(C(C)=O)c3)c(C(=O)OC)s2)cc1`: the survival is inactive: 81%.
As to `COc1ccc(N2CCN(C(=O)CCc3c(C)nn(-c4ccc(N5CCCC5)nn4)c3C)CC2)cc1`, the survival was inactive: 77%.
For `Cc1ccc(NC(=O)Nc2nnc(N(CC(C)C)CC(C)C)s2)cc1Cl`, the survival is inactive: 89%.
As to `COc1ccc(OC)c(NC(=O)C2CCCN(S(=O)(=O)c3c(C)nn(C)c3C)C2)c1` (stereo not given), the survival was inactive: 74%.
The result for `Cc1ccc(NC(=O)c2cnn3c(C(F)F)cc(-c4ccccc4)nc23)c(C)c1` reads inactive: 76%.
For `O=C(O)c1ccc2c(c1)ncn2-c1ccc(F)c(F)c1`, the survival is inactive: 82%.
Consider `COc1cccc(N2CCN(C(=O)C(CCSC)NS(=O)(=O)c3ccc4c(c3)oc(=O)n4C)CC2)c1` (stereo not given), for which the survival is inactive: 124%.
With `CCc1ccc(CNC(=O)Cc2ccc(NC(=O)N3CCSc4ncccc43)cc2)cc1`, the survival is inactive: 87%.
Regarding `CCOC(=O)CSc1nc2ccc(NC(=O)c3ccc(C)cc3)cc2s1`, the survival is inactive: 88%.
As for `OC1CN=C2C=CC=CN2C1` (stereo not given), the survival is inactive: 110%.
Take `COc1ccc(NC(=O)C2=C(C)Nc3ncnn3C2c2ccc(O)cc2)cc1` (stereo not given): the survival is inactive: 75%.
Regarding `CCCc1cc(=O)n(-c2ccc(C(=O)O)cc2)[nH]1`, the survival was inactive: 111%.
In the case of `Cc1ccc(C)c(NC(=O)c2ccc3c(O)c(S(=O)(=O)c4ccc(Cl)cc4)c(=O)[nH]c3c2)c1`, the survival was inactive: 86%.
Take `CCN(CC)c1nn2c(=O)c(C(=O)NCCc3ccccc3)cnc2s1`: the survival is inactive: 59%.
Turning to `Cc1cc2c(cc1S(=O)(=O)NCc1ccccc1Cl)OCCN2C`, the survival was inactive: 105%.
With `O=C(O)C1CCCCC1C(=O)N1CCCCCC1` (stereo not given), the survival was inactive: 108%.
Regarding `COc1ccc(OC)c(NC(=O)c2cc3c(=O)oc4ccccc4c3s2)c1`, the survival was inactive: 103%.
The result for `CCCCSCCCNC(=O)CN1C(=O)c2cccnc2Oc2ccc(Cl)cc21` reads inactive: 67%.
Regarding `CCOc1ccc(-c2nonc2NC(=O)c2oc3cc(C)ccc3c2C)cc1`, the survival was inactive: 85%.
Take `Cc1ccc(S(=O)(=O)N(CC(=O)N2CCC(C(N)=O)CC2)c2ccccc2F)cc1`: the survival is inactive: 98%.
`Cc1ccccc1C(=O)N/C(=C/c1ccc(-c2cccnc2Cl)o1)C(=O)NC1CC1`: the survival was inactive: 115%.
`O=C(NCc1ccc(F)cc1)c1ccc2c(Cl)c3c(nc2c1)CCCC3`: the survival was inactive: 62%.
Under `CCc1nc2c(Cl)cc(Cl)cc2c(=O)o1` stands inactive: 102%; under `Fc1ccc(-c2noc3ncnc(N4CCN(c5ccccc5)CC4)c23)cc1`, inactive: 82%; under `COc1ccc(S(=O)(=O)N2CCN(c3ccccc3F)CC2)cc1-c1noc(C)n1`, inactive: 100%.
For the compound `COc1ccc(NC(=O)C2CCN(S(=O)(=O)c3ccc4[nH]c(=O)ccc4c3)CC2)c(OC)c1`, the survival is inactive: 87%.
Turning to `Cc1cn2c(=O)cc(COc3cccc(NC(=O)c4ccccc4C)c3)nc2s1`, the survival was inactive: 81%.
Take `CC(=O)N1CCOc2cc(S(=O)(=O)Nc3cccc(C(F)(F)F)c3)c(Cl)cc21`: the survival is inactive: 93%.
With `CCOC(=O)c1ccccc1NC(=O)C(=O)Nc1ccc2nc3n(c(=O)c2c1)CCCCC3`, the survival was inactive: 123%.
With `CCc1cccc(-n2c(C)nc3c(cnn3-c3ccc(Cl)cc3)c2=O)c1`, the survival is active: -2%.
As for `N#CC(C#N)=C1CCCCCN1`, the survival is inactive: 109%.
As for `CCOC(=O)c1c(-c2ccccc2)oc2ccc(N(C(C)=O)S(=O)(=O)c3cc(C)ccc3C)cc12`, the survival was inactive: 85%.
For `Cc1cc(C)cc(NC(=O)N2CCC(N3CCCCC3)CC2)c1`, the survival was inactive: 103%.
For `COc1ccc(OC)c(NC(=O)Cc2coc3ccc(C(C)C)cc23)c1`, the survival was inactive: 91%.
Regarding `CCOC(=O)c1[nH]c(C)c(CCC(=O)NCc2ccccc2)c1C`, the survival is inactive: 73%.
In the case of `Cc1ccc(O)c(C(CC(=O)NCC2(c3ccccc3)CCCC2)c2ccccc2)c1` (stereo not given), the survival was active: 6%.
Under `CCc1c(C)nc(SCC(=O)N2CCN(c3ccccc3OC)CC2)[nH]c1=O` stands inactive: 90%; under `CC(=O)Nc1ccc(S(=O)(=O)N2CCC(NC(C)=O)(c3cccc(F)c3)CC2)cc1`, inactive: 107%; under `CCOc1ccc(CNC(=O)C2CCN(c3nnc(-n4cccc4CNc4ccc(C)cc4)s3)CC2)cc1OC`, inactive: 93%.
The result for `O=C(O)Cn1cc(C=C2C(=O)NC(=S)NC2=O)c2ccccc21` reads inactive: 108%; that for `CCOC(=O)c1ccccc1NC(=O)Cn1cc(C(=O)c2cccc(OC)c2)c(=O)c2ccc(C)nc21`, inactive: 58%; that for `CCOC(=O)c1c(C)[nH]c(CCC(=O)NCCCN2CCN(c3ccc(F)cc3)CC2)c1C`, inactive: 70%.
The result for `Cc1ccc(CCNC(=O)c2ccc3c(c2)N(Cc2cccc(C)c2)C(=O)c2ccccc2S3(=O)=O)cc1` reads inactive: 88%; that for `COc1ccc2cc(CNC3CCCCC3)c(=O)[nH]c2c1`, inactive: 108%; that for `CC(C)c1ccc(NC(=O)c2cc3c(s2)-c2ccccc2SC3)cc1`, inactive: 91%.
For the compound `Cc1cccc(-c2nc(S(=O)(=O)c3ccc(F)cc3)c(N3CCN(c4ccccc4)CC3)o2)c1`, the survival is inactive: 113%.
As for `O=C(CN1C(=O)COc2ccc(S(=O)(=O)N3CCCCCC3)cc21)NCc1ccc(Cl)cc1`, the survival is inactive: 132%.
`Cc1cc(=O)[nH]c2nnc(SCC(=O)NC(C)(C)C)n12`: the survival is inactive: 73%.
The result for `COc1cc2c(cc1OC)C(COc1ccccc1OC)N(C(=O)CC(C)C)CC2` (stereo not given) reads inactive: 82%; that for `O=C(Nc1ccc2oc(=O)ccc2c1)c1cccc(F)c1`, inactive: 106%; that for `CCc1ccc(N=C2NC(=O)CC(C(=O)Nc3ccc(OC)cc3)S2)cc1` (stereo not given), inactive: 110%.
Take `CN(C)S(=O)(=O)c1ccc(NC(=O)CNCc2ccco2)cc1`: the survival is inactive: 115%.
Turning to `COc1ccc(Cl)cc1Nc1sc(C(=O)c2ccccc2)c(N)c1C(=O)Nc1ccccc1`, the survival is inactive: 101%.
In the case of `Cc1ccc(S(=O)(=O)N/N=C2/CSCC2NC(=O)c2ccccc2)cc1` (stereo not given), the survival was inactive: 114%.
For `O=C(NCc1cccc(Cl)c1)c1cc2c(s1)-c1ccccc1OC2`, the survival was inactive: 52%.
As for `CCc1ccc(-c2cn3c(n2)sc2cc(C(=O)NC4CCCCCC4)ccc23)cc1`, the survival is inactive: 85%.
For the compound `CCc1c(C)sc2c1CCN(Cc1cccc(F)c1)C2c1ccccc1` (stereo not given), the survival was inactive: 53%.
As to `CSc1nnc(-c2ccccc2N)c(=O)[nH]1`, the survival was inactive: 101%.
For the compound `CC(=O)N1CCc2cc(CNS(=O)(=O)c3ccc(F)cc3)ccc21`, the survival is inactive: 73%.
Under `COCCc1nn2c(=O)cc(COC(=O)c3ccc4c(c3)OCO4)nc2s1` stands inactive: 121%; under `Cc1ccc(-c2cc(C(=O)NCc3cnn(C)c3C)c3cc(Br)ccc3n2)cc1`, inactive: 73%; under `Cc1ccc(S(=O)(=O)c2nc(-c3ccccc3F)oc2N2CCCCC2)cc1`, active: 17%.
The result for `Cc1ccc(NC2=C(c3ccc(C(F)(F)F)cc3)C(=O)c3ccccc32)cc1C` reads inactive: 81%; that for `CC(=O)Nc1ccc(C(=O)CSc2nnc(-c3ccccc3)n2-c2ccccc2)cc1`, inactive: 85%.
Take `O=C(NCC(c1cccnc1)N1CCc2ccccc2C1)c1ccc(F)c(F)c1` (stereo not given): the survival was inactive: 82%.
Regarding `O=C(Nc1ccc(Cl)cc1)C1CCN(c2nc3ccccc3nc2C(F)(F)F)CC1`, the survival was inactive: 19%.
In the case of `O=C(Nc1ccc(F)c(F)c1)c1nc2ncccn2n1`, the survival was inactive: 102%.
As to `O=C(NC1CC1)c1ccc(Cn2c(SCc3cccc(F)c3)nc3cccnc32)cc1`, the survival was inactive: 118%.
As for `Cn1c(SCC#N)nnc1-c1ccccc1`, the survival is inactive: 111%.
The result for `COc1ccccc1N1CCN(C(=O)c2ccc(CS(=O)c3ccccc3C)o2)CC1` (stereo not given) reads inactive: 75%; that for `COc1ccc(CCN2C(=O)c3oc4cc(C)cc(C)c4c(=O)c3C2c2ccc(F)cc2)cc1OC` (stereo not given), inactive: 79%.
The result for `Cn1cc(S(=O)(=O)c2cccc(Cl)c2)c(=O)c2cc(F)c(N3CCCCCC3)cc21` reads inactive: 55%; that for `CCS(=O)(=O)N1CCc2cc(C(=O)NCc3ccc(OC)cc3)ccc21`, inactive: 86%; that for `O=C(NC1CCN(C(=O)NC2CCCCC2)CC1)c1ccc(F)cc1`, inactive: 99%.
Regarding `CCC(CC)C(=O)Nc1ccc(OCc2cc(=O)n3c4c(sc3n2)CCCC4)cc1`, the survival was inactive: 122%.
`CS(=O)(=O)N(CC(=O)N1CCc2ccccc2C1)c1ccc(F)cc1`: the survival is inactive: 109%.

These data come from PubChem BioAssay AID463173 (ICCB-Longwood Screening Facility, Harvard Medical School, 2010).
